Data from PubChem BioAssay AID504339 (National Center for Advancing Translational Sciences (NCATS), 2011).
Out of some 390,000 compounds screened, about 17,000 (4.4%) were called active. The inconclusive results got no clear call from the source; some entries with a clear call stand among them for comparison. Calls come from the whole dose curve; as a rule, active = well fitted inhibition curve with a large enough effect; inconclusive = small, poorly fitted or top-dose-only effect; inactive = no such curve, though single readings can be large or run the other way. Potencies beside an inconclusive call are fits to weak or partial responses and may not hold up.
Note: nearly all actives have a fitted effect of over 50% in size.
Potency is the fitted concentration of half-maximal effect; tags give direction and shape of the fitted curve.

The molecules below were run against Lysine-specific demethylase 4A (Homo sapiens) (UniProt O75164) (assay: qHTS Assay for Inhibitors of JMJD2A-Tudor Domain). Settings: AlphaScreen JMJD2A-Tudor / H3K4me3 peptide binding; series mostly up to 114 µM.
Sequence of UniProt O75164 (O75164 whole entry, looked up, the tested form may be a part): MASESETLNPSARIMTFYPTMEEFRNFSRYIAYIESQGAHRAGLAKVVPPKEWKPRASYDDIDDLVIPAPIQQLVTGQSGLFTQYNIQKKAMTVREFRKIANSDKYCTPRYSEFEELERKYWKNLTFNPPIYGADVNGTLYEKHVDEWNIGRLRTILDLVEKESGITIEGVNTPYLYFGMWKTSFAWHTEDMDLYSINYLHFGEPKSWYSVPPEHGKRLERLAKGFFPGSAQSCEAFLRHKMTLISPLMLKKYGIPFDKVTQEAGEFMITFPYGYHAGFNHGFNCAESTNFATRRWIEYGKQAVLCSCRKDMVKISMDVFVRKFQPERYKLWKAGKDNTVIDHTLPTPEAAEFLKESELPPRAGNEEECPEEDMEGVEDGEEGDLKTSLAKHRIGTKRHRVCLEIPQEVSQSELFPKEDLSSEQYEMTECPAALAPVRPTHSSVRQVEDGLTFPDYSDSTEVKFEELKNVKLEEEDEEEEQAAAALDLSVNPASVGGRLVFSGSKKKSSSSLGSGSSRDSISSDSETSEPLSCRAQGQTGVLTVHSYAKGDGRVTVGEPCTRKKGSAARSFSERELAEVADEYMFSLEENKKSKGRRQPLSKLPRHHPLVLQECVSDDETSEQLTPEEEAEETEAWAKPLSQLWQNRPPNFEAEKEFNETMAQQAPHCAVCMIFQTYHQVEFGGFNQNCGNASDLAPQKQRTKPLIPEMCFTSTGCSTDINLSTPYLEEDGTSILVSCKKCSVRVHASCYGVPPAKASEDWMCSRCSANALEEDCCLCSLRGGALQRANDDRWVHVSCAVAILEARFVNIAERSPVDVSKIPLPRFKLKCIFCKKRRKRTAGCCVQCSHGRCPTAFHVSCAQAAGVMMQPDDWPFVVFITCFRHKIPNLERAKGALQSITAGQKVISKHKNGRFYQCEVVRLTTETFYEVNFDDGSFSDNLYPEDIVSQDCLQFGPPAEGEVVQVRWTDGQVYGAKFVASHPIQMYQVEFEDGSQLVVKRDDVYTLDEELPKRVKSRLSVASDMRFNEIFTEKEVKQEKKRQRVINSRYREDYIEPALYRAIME
`Cc1ccc(OCC(=O)N2CC3(C)CC2CC(C)(C)C3)cc1` (centres undefined) was tested, and the Potency was “inactive”.
`CCCCn1c(=O)c2c(nc3n2CCCN3Cc2ccccc2)n(C)c1=O` was tested, and the Potency was “inactive”.
`COc1ccc(Nc2ncc3c(n2)CCN(C(=O)OC(C)(C)C)C3)cc1` was tested, and the Potency was inconclusive: 4.47 µM [inhibitor, partial curve, poor fit].
`COc1ccc(C(=O)NCC(c2ccc3c(c2)OCO3)N2CCN(c3ccc(OC)cc3)CC2)cc1` (centres undefined) was tested, and the Potency was inconclusive: 22.4 µM [inhibitor, partial curve].
With `O=C(NNC(=O)c1ccncc1)Nc1ccc(N=Nc2ccccc2)cc1` the Potency was inconclusive: 44.7 µM [inhibitor, partial curve].
For `CCOc1ccc(CCNC(=O)c2cccc(-n3c(C)nc4cccnc43)c2)cc1`, the Potency was “inactive”.
`COc1ccc(CCNc2ncnc3c2c(C)c(C)n3CCO)cc1OC` was tested, and the Potency was inconclusive: 14.1 µM [inhibitor, full curve].
For `COc1ccc(S(=O)(=O)NCC(c2ccco2)N2CCc3ccccc32)cc1` (centres undefined), the Potency was inconclusive: 35.5 µM [inhibitor, partial curve].
In the case of `Cc1cc(C)cc(-n2c(C)cc(C(=O)CSc3nnnn3C)c2C)c1`, the Potency is reported as inconclusive: 56.2 µM [inhibitor, partial curve, poor fit].
With `CN1CCN(CCCOc2ccc(-c3ccccc3)cc2)CC1` the Potency was inconclusive: 17.8 µM [inhibitor, full curve, poor fit].
`COc1cccc(N2CCN(c3nc(-c4ccccc4C)cc(=O)[nH]3)CC2)c1` was tested, and the Potency was inconclusive: 56.2 µM [inhibitor, partial curve, poor fit].
With `CCN1CCN(C(c2ccccc2)c2c(O)cc(C)n(Cc3ccco3)c2=O)CC1` (centres undefined) the Potency was inconclusive: 79.4 µM [inhibitor, partial curve].
For `Cc1onc(-c2c(F)cccc2Cl)c1C(=O)N1CCN(S(C)(=O)=O)CC1`, the Potency was “inactive”.
In the case of `Cc1ccccc1NC(=O)c1ccc(F)c(S(=O)(=O)N(C)C2CCCCC2)c1`, the Potency is reported as “inactive”.
With `O=C(CN1C(=O)C(=O)N(C2CCCC2)C1=O)Nc1ccc(Cl)cc1C(F)(F)F` the Potency was “inactive”.
`Cc1[nH]c(=S)c(C#N)c(C)c1C(=O)Nc1ccccc1` was tested, and the Potency was active: 8.91 µM.
`Cc1c(/C=N/NC(=O)CNc2ccccc2)c2ccccn2c1C(=O)c1ccccc1` was tested, and the Potency was inconclusive: 44.7 µM [inhibitor, partial curve].
`COc1ccc(-c2csc3ncnc(N4CCN(c5ccccc5OC)CC4)c23)cc1` was tested, and the Potency was inconclusive: 0.708 µM [inhibitor, full curve, poor fit].
With `Nc1ccc(Cc2nc3cc4ccccc4cc3[nH]2)cc1` the Potency was inconclusive: 50.1 µM [inhibitor, partial curve].
